Lines with a small IC50 respond at low doses; fits outside the tested doses are given as limits. AUC, from the same fit, is the share of area under the viability curve across the 256-fold dose range; values near 1 show little effect. For some of these results: The top dose, if marked as inferred, was calculated from the reported fits. For some of these results: An entry number marks a drug with two screens in the source, which often give different values.

What all share (assay): Viability of human cancer cell lines after 72 h of drug (GDSC screen)
Compound in one test: CC1=C(/C=C/C(C)=C/C=C/C(C)=C/C(=O)O)C(C)(C)CCC1 [Tretinoin]
To be noted: top dose 10 µM; top dose inferred. How it is done:
(§1)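 Human cancer cell lines in 384-well plates, medium with 10% serum, drug for 72 h over a 256-fold dose range (nine 2-fold or five 4-fold steps up to the top dose). Adherent lines were fixed and stained with the nucleic acid dye Syto60, suspension lines read with resazurin; signal relative to control wells, capped at 0 and 100%. One two-parameter sigmoid per drug and line, fitted in a mixed model over all curves with the slope shared within a line.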

Compound in a further test: CCn1c(-c2nonc2N)nc2c(C#CC(C)(C)O)ncc(OC[C@H]3CCCNC3)c21 [GSK690693]
The following applies: top dose 10.24 µM; top dose inferred. How it is done:
as §1

Compound in another test: COc1cc2c(NC3CCN(C(C)C)CC3)nc(C3CCCCC3)nc2cc1OCCCN1CCCC1 [UNC0638]
How it is done:
as §1

Compound in another test: COc1ccc(N(C(=O)Oc2c(C)cccc2C)c2ccnc(Nc3ccc(N4CCN(C)CC4)cc3)n2)c(OC)c1 [WH-4-023]
The following applies: top dose 5.12 µM; top dose inferred. How it is done: as §1

Compound in another test: Cc1cccc(-c2[nH]c(C(C)(C)C)nc2-c2ccc3c(c2)OCO3)n1 [SB-505124]
To be noted: top dose 10 µM; top dose inferred. How it is done: as §1

Compound in the next test: O=C(NCCCNc1nc(Nc2cccc(NC(=O)N3CCCC3)c2)ncc1I)c1cccs1 [BX-795]
The following applies: top dose 5 µM; top dose inferred. How it is done:
as §1

Compound in the next test: Oc1cccc(-c2nc(N3CCOCC3)c3oc4ncccc4c3n2)c1 [PI-103]
To be noted: top dose 10.24 µM. How it is done:
as §1

Setting [1] is: top dose 20 µM, screen: GDSC drug entry 1236, top dose inferred.
The mark [2] stands for this setting: top dose 40 µM, screen: GDSC drug entry 245.

What is called IC50 is the concentration needed to halve the response being measured. Take “CESS (acute myeloid leukaemia, suspension)”: the AUC in the test with Tretinoin is 0.988; with GSK690693, 0.231; with UNC0638 (setting [1]) it was 0.824; in the test with WH-4-023, 0.977; with SB-505124, 0.977; in the test with BX-795 it was 0.991. The AUC with PI-103 is 0.104. The IC50 in the test with Tretinoin was more than 10 µM; with GSK690693 it was 0.123 µM; with UNC0638 (setting [1]), 9.67 µM; with WH-4-023, more than 5.12 µM; in the test with SB-505124, more than 10 µM; with BX-795, more than 5 µM. Also, in the test with PI-103, the IC50 came to 0.0437 µM.
With CGTH-W-1 (thyroid, adherent), the AUC came to 0.986 in the test with Tretinoin; 0.982 in the test with GSK690693; 0.609 in the test with UNC0638 (setting [1]); 0.775 in the test with UNC0638 (setting [2]); 0.979 with WH-4-023; 0.947 with SB-505124. The AUC with BX-795 worked out at 0.533; in the test with PI-103, 0.464. The IC50 with Tretinoin is more than 10 µM; in the test with GSK690693, more than 10.2 µM; with UNC0638 (setting [1]), 2.48 µM; with UNC0638 (setting [2]), 15.8 µM; in the test with WH-4-023, more than 5.12 µM; in the test with SB-505124 it was more than 10 µM. The half-inhibitory concentration (IC50) stood at 0.384 µM with BX-795 and 0.511 µM with PI-103.
For CHP-126 (neuroblastoma, suspension), the AUC in the test with Tretinoin turned out to be 0.95; with GSK690693, 0.981; with UNC0638 (setting [1]), 0.824; with UNC0638 (setting [2]), 0.657; in the test with WH-4-023 it was 0.964; with SB-505124, 0.956. Further, the AUC with BX-795 stood at 0.779; with PI-103, 0.89. Further, the 50% inhibitory concentration (IC50) was more than 10 µM with Tretinoin; more than 10.2 µM in the test with GSK690693; 12.4 µM with UNC0638 (setting [1]); 6.93 µM with UNC0638 (setting [2]); more than 5.12 µM with WH-4-023; more than 10 µM with SB-505124. Also, the IC50 with BX-795 is 2.1 µM; with PI-103 it was more than 10.2 µM.
Regarding CL-11 (large intestine, adherent), the AUC was 0.975 with Tretinoin; 0.987 with GSK690693; 0.977 with UNC0638 (setting [1]); 0.987 in the test with UNC0638 (setting [2]); 0.986 with WH-4-023; 0.986 in the test with SB-505124. Moreover, the AUC amounted to 0.901 with BX-795 and 0.962 in the test with PI-103. Also, the half-inhibitory concentration (IC50) is more than 10 µM with Tretinoin; more than 10.2 µM with GSK690693; more than 20 µM in the test with UNC0638 (setting [1]); more than 40 µM with UNC0638 (setting [2]); more than 5.12 µM in the test with WH-4-023; more than 10 µM with SB-505124. In addition, the IC50 with BX-795 is more than 5 µM; with PI-103, more than 10.2 µM.
Consider “CMK (acute myeloid leukaemia, suspension)”, for which the AUC came out at 0.95 in the test with Tretinoin; 0.962 with GSK690693; 0.821 with UNC0638 (setting [1]); 0.602 with UNC0638 (setting [2]); 0.989 with WH-4-023; 0.973 with SB-505124. Moreover, the AUC with BX-795 turned out to be 0.858; with PI-103, 0.307. Besides, the IC50 with Tretinoin was more than 10 µM; with GSK690693 it was more than 10.2 µM; with UNC0638 (setting [1]), 9.34 µM; with UNC0638 (setting [2]), 4.54 µM; with WH-4-023, more than 5.12 µM; in the test with SB-505124 it was more than 10 µM. The IC50 is 3.15 µM in the test with BX-795 and 0.203 µM with PI-103.
As for “COLO-320-HSR (large intestine, suspension)”, the AUC stood at 0.99 with Tretinoin; 0.988 with GSK690693; 0.847 with UNC0638 (setting [1]); 0.893 with UNC0638 (setting [2]); 0.982 with WH-4-023; 0.988 with SB-505124. Further, the AUC in the test with BX-795 is 0.923; with PI-103 it was 0.74. Moreover, the half-inhibitory concentration (IC50) is more than 10 µM with Tretinoin; more than 10.2 µM with GSK690693; 11.9 µM with UNC0638 (setting [1]); 36.7 µM with UNC0638 (setting [2]); more than 5.12 µM with WH-4-023; more than 10 µM with SB-505124. In addition, the IC50 with BX-795 is more than 5 µM; with PI-103, 2.77 µM.
For the cell line “COLO-668 (small cell lung carcinoma, adherent)”, the AUC is 0.987 with Tretinoin; 0.978 in the test with GSK690693; 0.82 with UNC0638 (setting [1]); 0.674 with UNC0638 (setting [2]); 0.981 with WH-4-023; 0.982 with SB-505124. For the same cell line, the figures for the AUC with BX-795 and with PI-103 were 0.92 and 0.603, respectively. Also, the concentration for half-maximal inhibition (IC50) was more than 10 µM with Tretinoin; more than 10.2 µM in the test with GSK690693; 11.4 µM with UNC0638 (setting [1]); 7.64 µM with UNC0638 (setting [2]); more than 5.12 µM with WH-4-023; more than 10 µM with SB-505124. In addition, the concentration for half-maximal inhibition (IC50) with BX-795 was more than 5 µM; in the test with PI-103, 1.23 µM.
With COLO-684 (endometrium, suspension), the AUC with Tretinoin is 0.969; with GSK690693, 0.427; with UNC0638 (setting [1]) it was 0.817; with UNC0638 (setting [2]) it was 0.696; with WH-4-023, 0.971; in the test with SB-505124, 0.962. Further, the AUC with BX-795 stood at 0.923; with PI-103 it was 0.125. Moreover, the IC50 in the test with Tretinoin is more than 10 µM; in the test with GSK690693, 0.393 µM; in the test with UNC0638 (setting [1]) it was 13 µM; in the test with UNC0638 (setting [2]) it was 9.61 µM; with WH-4-023 it was more than 5.12 µM; with SB-505124, more than 10 µM. Further, the values for the IC50 with BX-795 and in the test with PI-103 were more than 5 µM and less than 0.04 µM, respectively.
For COLO-800 (melanoma, adherent), the AUC with Tretinoin stood at 0.961; in the test with GSK690693, 0.943; with UNC0638 (setting [1]), 0.706; with UNC0638 (setting [2]), 0.876; in the test with WH-4-023, 0.988; with SB-505124, 0.963. The AUC with BX-795 amounted to 0.782; with PI-103, 0.831. The half-maximal inhibitory concentration (IC50) with Tretinoin was more than 10 µM; with GSK690693 it was more than 10.2 µM; with UNC0638 (setting [1]), 4.65 µM; with UNC0638 (setting [2]), 37.7 µM; with WH-4-023, more than 5.12 µM; with SB-505124 it was more than 10 µM. Further, the half-inhibitory concentration (IC50) with BX-795 amounted to 2.03 µM; in the test with PI-103 it was 6.22 µM.

The record behind these values is the supplement of paper PMC4967469.
